# Assay results as given in PMC7819943, “Rice protein-binding microarrays: a tool to detect cis-acting elements near promoter regions in rice”.
# The list shows a part of the results.
# Biological target: T1, OsWOX13 (Oryza sativa, UniProt Q5QMM3 1-267)
# T1 sequence: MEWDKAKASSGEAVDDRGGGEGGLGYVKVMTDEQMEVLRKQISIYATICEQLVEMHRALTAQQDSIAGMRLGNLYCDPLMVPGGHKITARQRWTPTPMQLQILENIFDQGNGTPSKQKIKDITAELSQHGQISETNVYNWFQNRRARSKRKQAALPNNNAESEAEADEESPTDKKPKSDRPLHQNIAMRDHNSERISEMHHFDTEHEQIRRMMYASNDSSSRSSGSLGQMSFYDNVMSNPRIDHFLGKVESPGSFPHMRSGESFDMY
# Experiment: protein-binding microarray (RPBM); PBS, 2% BSA, 51.3 ng/ul salmon testes DNA, 50 uM zinc acetate, 200 nM TF, 25 C, 1 h; high values mean tight binding
# Settings: protein: recombinant; tags: N-terminal polyhistidine and DsRed monomer fusion (pET32a); label: CyDye5-dUTP incorporated in the synthesized complementary strand; 3' TTTTT single-stranded linker to array surface; dsDNA, one strand shown
# How it was run: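 A custom Agilent array was converted to double-stranded form by primer extension with Cy5-dUTP and blocked with 2% BSA. Protein at 200 nM in PBS with 2% BSA, salmon testes DNA and 50 µM zinc acetate was applied for 1 h at 25 °C, followed by washing. The proteins were polyhistidine–DsRed N-terminal fusions of transcription factors, expressed in E. coli BL21-CodonPlus and Ni–NTA-purified. The binding signal is per-feature fluorescence intensity (arbitrary units) from an Axon 4000B scanner.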
row,Sequence,binding signal
1,CTAATCAAAATGTAATTAACTCATTTATATATTACGGAAACGGAGTCACCTAGTGCAG,21800 fluorescence intensity (a.u.)
2,CCTTGCTTTGTTAATTGCTCGATCTCTTGCAGCTGCGCATCGGAGTCACCTAGTGCAG,5380 fluorescence intensity (a.u.)
3,ACTGATGGAGAGCATCAGAGGAAGCTATGAGCACAATGTCCGGAGTCACCTAGTGCAG,4000 fluorescence intensity (a.u.)
4,TTTAATATTTATAATTAATGTCAAACATCAGATGTGATAGCGGAGTCACCTAGTGCAG,12700 fluorescence intensity (a.u.)
5,GCTTGTATTTTAACTAATTATTCTTGTAGTGGTCGATGATCGGAGTCACCTAGTGCAG,5440 fluorescence intensity (a.u.)
6,TTAAATTCAGATAATTAGCAAAGATCTGTAGTGGATGCTGCGGAGTCACCTAGTGCAG,27100 fluorescence intensity (a.u.)
7,CTATATATTCAGGCCCGTTGATTGAACTTCTCAGCACAGACGGAGTCACCTAGTGCAG,18800 fluorescence intensity (a.u.)
8,CCCAATCTTTTAAATTAGGCCCATTACTATGCAGCCCGTTCGGAGTCACCTAGTGCAG,3860 fluorescence intensity (a.u.)
9,ATTAATTAGATATTAACAATTATAAAATTGAAAATGAGTACGGAGTCACCTAGTGCAG,24100 fluorescence intensity (a.u.)
10,TCGTGTGTGCCAATCACCGAGCGCGGCAAACAAATTCTGTCGGAGTCACCTAGTGCAG,7860 fluorescence intensity (a.u.)
11,GACAAATCTTTAAAGCCTGATTGCGCCATGATTGACAATGCGGAGTCACCTAGTGCAG,40200 fluorescence intensity (a.u.)
12,CCAAAATATATTAATTAGCTCAGGTATGTACCCGCCCAATCGGAGTCACCTAGTGCAG,10700 fluorescence intensity (a.u.)
13,GATAATTGACAAATACAATAATGACAAATAGTTAAATTCCCGGAGTCACCTAGTGCAG,42100 fluorescence intensity (a.u.)
14,TTTTCTCCTTGATTAGCCAGCTAATCAATCGATTATCCTCCGGAGTCACCTAGTGCAG,24800 fluorescence intensity (a.u.)
15,TCGTTCTAATTTCTTCGAATTCAATTTTAACGTGAAAGCACGGAGTCACCTAGTGCAG,4710 fluorescence intensity (a.u.)
16,GCAGTATAATCAATCAGCCATTCATGTGTTTTGCAATCATCGGAGTCACCTAGTGCAG,14500 fluorescence intensity (a.u.)
17,TTAGACATTTTGTGATTTAACAAATTTTGTACACACATATCGGAGTCACCTAGTGCAG,18600 fluorescence intensity (a.u.)
18,ATAATAAACTGATTTGATTAAGTATATGTGCATTAGGGTGCGGAGTCACCTAGTGCAG,46900 fluorescence intensity (a.u.)
19,ATTTTAGACTCAGCGCCAAATTGACGGACCTAAAGTGAATCGGAGTCACCTAGTGCAG,7760 fluorescence intensity (a.u.)
20,TTGATTTATTTGCAGATTAATTCCGATCGAAATTAAAGTTCGGAGTCACCTAGTGCAG,25100 fluorescence intensity (a.u.)
21,CTCTGACAAAATAAACTAGAGAGGTGGAGCTCGGTTTAGGCGGAGTCACCTAGTGCAG,5010 fluorescence intensity (a.u.)
22,GGATTCAGCATACCAATCTAATTAGGTTATTGGGGTGGTGCGGAGTCACCTAGTGCAG,7140 fluorescence intensity (a.u.)
23,CCCTCAAAATTAGTTCAATTTATGTAAAATTTCAAACTTTCGGAGTCACCTAGTGCAG,12600 fluorescence intensity (a.u.)
